In the RNAGym collection of RNA variant scans (doi:10.7554/elife.90254):
Read counts are not given, so values of variants with three or more changes are uncertain.

B1: LINE1-mini (parent)
chain: GGCAGAGCUCAACACAGCGUGGCAAAGUGGCUGUGGCUAGACUGCC

Variants of: B1
Assay: self-cleavage, relative activity (ratio to wild type); higher = more cleavage; in vitro, sequencing; the parent is a self-cleaving ribozyme

| Variant | self-cleavage |
| --- | --- |
| GGAAGAGCUCAACACGGCGUGGCAAUGGGGCCGUGGCUAGACCGCC | 0.15 |
| GGCAGAGUUCAACACAGCGUGGAAAAGUGGCUGUGGCUAUACUGCC | 0.03 |
| GGCAGAGCUCACCACAGCGUGGCAAAGUGGCUGUUGAUAGACUGCC | 0.07 |
| UGCAGAGCUCAACACAGCGUGGCAGAGUGGCUGUGACUAGACUUCC | 0.08 |
| GGCAGAGCACAACACAGCGUGGCAAACUGGCUGUGGCUUGACUGCG | 0.08 |
| GGCAGGGCUCAACACAGCGUGGCAAAGUGGGUGUUGCUAGACUGCC | 0.03 |
| GGCAGUCCCCAACACAGCCUGGCAAAGUGGCUGUGGCUAGACUGCC | 0.03 |
| AGCAGAGCUCAACACAGAGUGGAAAAGUGGCUGUGGCUAGAAUGCC | 0.03 |
| GGUAUAGCUCAAAACAGCGUGGCAAAGUCGCUGUGGCUAGACUGCC | 0.05 |
| GGCAGAGCUCAACACAACGUAGCAAAGUGGCUGUGGCUAGACUGCG | 0.1 |
| GGCCGAUCCCAACACAGCGUGGCAAAGUGGCUGUUGCUAGACUGGC | 0.02 |
| GCCAGAGCUAAAUACAGCGUGGCAAAGAGGCUGUGUCUAGAAUGCC | 0 |
| GGUAGAGCUCAACACAGCGUGGUACAGUGGCUGUGGCUAGACUGCC | 0.63 |
| GGCCGAGCUCAACACAGCGUGGCAAAGUGGGUGUGUCUAGACUGCC | 0.02 |
| GGCAGAUCUCAACACAGCGUGGAAAAGUGGCUGUGGCUAGACUGCU | 0.14 |
| GGAAGAGCUCAACAGAGCGUGGCAAAGUGGUUGUGGCUAGACUGCC | 0.03 |
| GGAAGAGCUCAACACAGCGUGGCAAAGUGUCUGAGGCUAGACUGCC | 0.03 |
| GGCAGAGCCCAACCCAGCGUGGCAAAGUGGCUGUGGAUAGACUGCC | 0.03 |
| GGCAGAGCUCAACACAGAGUGGCUAAGUGGCUGUGGCUAGACUGCA | 0.22 |

| Variant | self-cleavage |
| --- | --- |
| GGCAGAGCUCGACACAGCGUGGCAAACUGGCUGUAGCUAGAAUGCC | 0.01 |
| GGCAGACCUCAACCCAGCGUGCUAAAGUGGCUGUGGCUAGACUGCC | 0.01 |
| GCCAGAGCUCAACACAGCGGUGCAAUGAGGCUGUGACUAGACUGCC | 0.04 |
| GGCAGAGGUCAACACAGCGUGCCAAAGUGGCUGUGGCUAGACUGAC | 0.01 |
| GCCCGAUCUCAACACAGCGUGGCAAAGUGGCUGUGGCUAUACUGCC | 0.04 |
| GGCAGACCUCAACACAGCGUGGCACAGUGGCUUUGUCUAGACUGCC | 0.03 |
| GGCAGAGCUCAACACAGCGUGGCAAAGUGGCUGUGGCUGGACUUUA | 0.1 |
| GGCAGAGCUCAACACAGCGAGGCAAAGUUGCUGUGGUUAGACUGCC | 0 |
| GGCAGAUCUGAACACAGCGUGGCAAAGUGGCUGUGGCUAGACCGCC | 0.01 |
| GGCGGAGGUAAACACAGCGUGUUGAAGUGGCUGUGGCUAGACUGCC | 0.01 |
| GGCAGCCCUCAGCACAGCGUGUCAAAGUGGCGGUGGCUACACUGCC | 0.01 |
| UGCAGAGGUCACCACAGCGAGGCAAAGUGGCUGUGACUAGACUGCC | 0.01 |
| GGCAGAGCUCAAUACUGCAUGGCAAAGUGGCUUUGGCUAGACCGCC | 0.07 |
| GGCAUAGCUCAACACAGCCUGGCAAAGUGGCUGGGGCUAGACCGCC | 0.01 |
| GGCAGAGCUAAACAGAGCGUCGCAAAGUUGCUGUGGCUAGACUGCC | 0.02 |
| GGCAGAGCUCAGCACAGCGUGGCUAAGUGGCGGUGGCGAGACUGCC | 0.02 |
| GGCAGAGAUCAACACAGUGUUGCAAAGUGGCUGUUGCUUGACUGCC | 0.22 |
| GGCAGAGCUCAACACAGCGUGGCAAAGUGUAUGUGGUUAAACUGCC | 0.08 |
| GGCACGGCUCAACACAGCGUGGCAAAGUGGCUGUGGCUAGACUGGC | 0.05 |

| Variant | self-cleavage |
| --- | --- |
| GGCGGAGCUCAACACAGCGUGGCAAAGUGGCUGUGGCUAGAUUGUC | 0.06 |
| GGCAGAGCUCAAUACAUCGUGGCACAGUGGCUGUGGCUUGACUGCC | 0.02 |
| GGCAGCGUUCAAGACAGCGUGGCAAAGUGGCUGUGGCUAGACUGCC | 0.09 |
| GGCAGAGCUCAACUCAGCGUGGCAAAGUGGCCGUCGCUAUUCUGCC | 0.11 |
| GGUAGAGAUCAACACAGAGUGGCAAAGUGGCUGUGGCUAGACUGCC | 0.32 |
| GGCAGAGCUCAAAACUGCAUGGCAAAGUGGUUGUGGCUAGACUGCC | 0 |
| GGCAGAGCUAAACACAGCGUGGUAAAGUUGCUGUGGCUGGACUGCC | 0.04 |
| GGCAAAGCUCAACACAGCGUGGCAAAGUCGCUGUGGCUAAACUGCC | 0.02 |
| GGCAGAGCUCUACACACCGUGGCAAAGUGGCUGUGGCUAGCCUUCC | 0.02 |
| GGCGGAGCUCAACACAGCGUGACAAAGUGGUUGUGGCUAGACUGCC | 0.06 |
| GGCAGAGCUCAACACACCGUGGCAAAGUGGAUGUGGCUAGACUGAC | 0.05 |
| GACAGAGCUCAACACAGCGUGGCAAAGUGGCUGUUGGUACCCUGCC | 0.83 |
| GGCAGAGGUCAAAACAGCGUGGCAAAGUGCCUGAGGCUAGACUGCC | 0.07 |
| GGUAGAGCUCAACACAGCGUGGCAAAGUGACUGUGGCAAGACUGCC | 0.8 |
| GACAGAGCUCAACACAGCGUGGCUAAGUGGCUGUGGCUAGACUAUC | 0.45 |
| AGCAGAGCUUAACACAGCGUCGCAAAGUGGCUGUGGCUAGACUGCC | 0.23 |
| GGGAGAGCUCAAGACAGCGUGGCAAAGUUGCUGUGGCUAGACUGUC | 0.12 |
| GCCAGAGAUCAACACAGCGUGGCACAUUGGCUGUGGCUAGACUGCC | 0.11 |
